In the RNAGym collection of RNA variant scans (doi:10.7554/elife.90254) one finds self-cleavage data, which are given here for 167 variants.

First the molecules themselves.
B1: OR4K15 (parent)
chain: GUUAACGGUCAUAGGCCAUGGAAACUAGGAGCACCAUUUCGCUGCCAGUGAAGAAAUGAACAAAGAAAAUCUGGGCCAGGCAGGCAUCAAAAGAAAUAGUCUUGCGCUCAACCAGAAAGUCUGUAAUCAUUUUAAGGGUA

The source gives no read counts; variants with many changes may rest on few reads.

Variants of B1 are the subject of this data set. Put plainly: self-cleavage, relative activity (ratio to wild type); higher = more cleavage; in vitro, sequencing; the parent is a self-cleaving ribozyme.
Take A22U A59G A95G: the self-cleavage is 1.29.
The value for A22G U37C C42U was 1.15; that for A22G A24G A33U G106A C113A was 0.06; that for A22G A51G U87C was 1.28.
As to U19C U39A A47G A59G A89G A129G, the self-cleavage was found to be 0.59.
For A22G U49A A78G U100G, the self-cleavage was 0.25.
Consider A22G A55G A64G U132C, for which the self-cleavage is 1.62.
A22G A51U U132C: the self-cleavage is 1.41.
Consider A22U U38C A78G U102A, for which the self-cleavage is 0.07.
As to A22C G44C A114G, the self-cleavage came out at 0.76.
U19G U39C A90G A98G U120C: the self-cleavage turned out to be 0.51.
For G21A A24G U72A A96G, the self-cleavage turned out to be 0.16.
Regarding U19C U38C U57A, the self-cleavage is 1.5.
As for U19C U49C A60G U100C, the self-cleavage was 2.33.
In the case of G20A U26C A36U U49G A59G, the self-cleavage was 1.04.
The value for A22U C61U A92G U102C A129U was 0.66.
As to A22G A59G A110G U139C, the self-cleavage was 0.08.
The value for G20A A55G A98G U102C was 1.5.
As for A22G A23G A55G A60G A64U, the self-cleavage was 0.72.
As for A22G A62G U72C A91G, the self-cleavage was 0.2.
Take A22G A55G A59U A118U U132C: the self-cleavage was determined as 0.3.
For A22G A33G U49C A78U C81U A117G A126G A129G, the self-cleavage is 0.04.
The value for A22U U57A A64G was 1.84; that for A22U A68G A98G A114G was 0.15.
For the variant G20A C45U A114U, the self-cleavage turned out to be 0.02.
The value for A22G C46G U49C C61G was 0.44.
A22G U49A U72C G106U A110C: the self-cleavage was found to be 0.
Turning to A22U G44C A82U, the self-cleavage was 0.11.
Take G21U A69U A86G: the self-cleavage was 2.33.
A22U A33G A60G A67G U120C: the self-cleavage is 0.3.
Take A22G A24G A55G A59G A92G: the self-cleavage was 0.71.
On to A22G A23G C61G A92G U103C U108C U124C, for which the self-cleavage amounted to 0.
With A22U A47U A67G A78U, the self-cleavage worked out at 0.24.
The value for U19C U70C A125U was 0.52; that for A22U A96G A111G U139G was 0.
U19G A55G U122C U130C: the self-cleavage was found to be 1.12.
Consider A22G A54U U57C U70C, for which the self-cleavage was 0.63.
For the variant A22G U38A A47G A69C G137A, the self-cleavage turned out to be 1.18.
Take U19C U38C U57C A114U: the self-cleavage was determined as 0.04.
Turning to A22U A54G A91C A94G U103C, the self-cleavage is 0.95.
As to A22G A27U U57C A86G U130C, the self-cleavage is 0.94.
Consider A22G A56G A69G, for which the self-cleavage was 0.98.
For A22G A30G U39C A52G A117G, the self-cleavage is 1.18.
As to A22G A51G U103C U127C, the self-cleavage came to 0.36.
On to A22U A23G A24G U57C A67U U103C A117C, for which the self-cleavage amounted to 0.03.
The value for U19C U39C A54U A55G A63C was 1.33; that for A22G A23G U57A A67U was 0.89.
The value for G20A A52G A86G C88U U130A was 0.86; that for A22U A52G A110U A126G was 0.35.
The value for A22G A47U A111G U122C was 0.01.
Consider A22G U87A A126G, for which the self-cleavage came out at 1.08.
Consider A22G A98G U102C, for which the self-cleavage worked out at 1.
As for A22C G48U U49C, the self-cleavage turned out to be 0.92.
The value for A22G C35U C128U was 0.17.
Take A22G U43C A69G U72C A96G: the self-cleavage worked out at 0.28.
A22G A24G U49C C105G A118U: the self-cleavage was 0.01.
Turning to A22G A116G A126G U132C, the self-cleavage was determined as 1.24.
For A22G U120C A134G, the self-cleavage turned out to be 0.64.
On to A22G A36U A89G, for which the self-cleavage was determined as 1.28.
Regarding G20A U100C A126G, the self-cleavage was found to be 1.52.
The value for A22G A24U A51G was 1.36; that for A22G U70C U87C was 0.56.
As to U19C G58U A114G A116G U132C, the self-cleavage turned out to be 0.05.
The value for A22G A36C A78G U103C U124C was 0.06; that for A22U U43C A95G was 1.06.
Regarding A22U A51G A91G A118G, the self-cleavage is 0.67.
Turning to A22G A27U U38A A92G U132A, the self-cleavage turned out to be 0.75.
Regarding G20A A96G U103C U122G, the self-cleavage worked out at 0.61.
As to A22G A24G A51U, the self-cleavage came to 1.19.
On to U19C G44A U72A, for which the self-cleavage turned out to be 0.24.
The value for U19C U39C A67G was 1.57.
The value for U19C U43C A140G was 1.55; that for A22G A27G A51G U127C A135G was 0.05; that for A22G A24G A47U U57C A67U A82U was 0.21.
Consider A22G A54G A55G A117G U130C, for which the self-cleavage turned out to be 1.44.
Regarding A22G A52G A89G, the self-cleavage was 0.52.
Take U19C G73A A110G: the self-cleavage is 0.11.
The value for U19C U43C U87C A114G A117G A126G was 0.07; that for A22G A47U A63G was 0.77; that for A22G A55G A78U A96G was 0.14.
Take A22U A63G A64G G65A U120C: the self-cleavage came out at 1.91.
In the case of A22U U26C C76A C77U A82G, the self-cleavage was 0.15.
As to A22U U57C A89G, the self-cleavage is 0.96.
With A22G A47U U127C, the self-cleavage came out at 0.51.
With A22G A52G A63G, the self-cleavage was 1.44.
The value for A22G U37C A90G A117G was 0.16; that for A22G A64G A110G was 0.22; that for A22G A86G A94G was 1.29.
Consider A22G A36G A68U, for which the self-cleavage stood at 1.93.
As to A22G A60U U87C U108C, the self-cleavage came to 0.04.
In the case of A22G A63G A111U, the self-cleavage came out at 0.14.
The value for G21C A92G U130C was 0.43; that for A22G G48A A94G was 1.17.
Turning to A22G U103C U131C, the self-cleavage turned out to be 0.68.
Consider U19C U38C A55G A86G, for which the self-cleavage worked out at 1.13.
As to A22U U49A A116G, the self-cleavage was determined as 0.4.
G21A A62G U87C: the self-cleavage was 0.54.
For the variant U19C U57A A60G, the self-cleavage turned out to be 1.15.
For the variant A22G U26A A59G C128A U131C, the self-cleavage amounted to 0.65.
On to A22G A68U A126G, for which the self-cleavage stood at 0.
For U19G A51G U102C A110G U131C, the self-cleavage came to 0.12.
For A22G G44A A86U, the self-cleavage came to 1.92.
Take A22G A69G A111G U122C: the self-cleavage is 0.04.
For U19C U43C A68G U97C U122C, the self-cleavage worked out at 0.6.
Take A22G A33G A55G A60G U72C A116G: the self-cleavage turned out to be 0.18.
A22G U49C C105U A110G: the self-cleavage came to 0.08.
The value for A22G A27G A62G was 1.48; that for A22C A63G U108C was 0.02.
A22G A89G A98G U103C A116G A125U: the self-cleavage came out at 0.03.
Take A22G A30G A89G: the self-cleavage turned out to be 1.12.
The value for U19C U37C A110U was 1.37; that for A22G A78G A82G U87C A114C was 0.03; that for G21U U102C A116U U130C was 0.89.
With A22U G73U A89G, the self-cleavage is 0.18.
As to A22G U57C A114U, the self-cleavage amounted to 0.06.
In the case of U19C U39C A68U U130C G137U, the self-cleavage was determined as 1.45.
As for U19C G53U G58A A140G, the self-cleavage worked out at 1.37.
The value for A22U A30G A59U A118G G123C A129G was 0.46; that for A22G A47G A51G A64G was 1.01.
Regarding A22G U49C A62G, the self-cleavage turned out to be 0.53.
As for A22G U39A U72A A118U A126G, the self-cleavage turned out to be 0.01.
The value for A22G A60G A114U A118G was 0.02.
The value for A22G A60G A68U A129G was 0.49; that for A22G A60G A90G was 0.43.
On to A22G U37C U38A A60U, for which the self-cleavage turned out to be 1.48.
Take G20U A23G A47G U57C U87C: the self-cleavage stood at 0.71.
The value for A22U A110U A111G A117G U127C was 0; that for G20A A47C A111U was 0.06.
A22G A30G U43C A54G A86U A90G A94G U122C: the self-cleavage worked out at 0.96.
Regarding A22G A55G U70C, the self-cleavage stood at 1.33.
Consider G21C A60U A64G U100C, for which the self-cleavage is 1.5.
The value for A22G C32U A64U A114G A135G was 0.26; that for A22G A23G A86G was 1.91; that for A22G A62G U102C U131C was 0.94.
As to G20A A62G A89C A90G U139C, the self-cleavage was determined as 0.9.
Take A22G A69G A135G: the self-cleavage is 1.79.
For U19C U57C A117G, the self-cleavage was determined as 0.11.
On to A22G A60G U100C U108C A125G, for which the self-cleavage was 0.01.
With A22G U72A A82U A91G, the self-cleavage came out at 0.13.
As to A22U A36G U57C U87A, the self-cleavage came to 0.76.
Take A22U U37C C61U A90C: the self-cleavage was 1.88.
Take G20A A69G C85G: the self-cleavage turned out to be 1.03.
Turning to A22G U38A U120C U130C, the self-cleavage was found to be 0.59.
The value for A22G A92G A114U was 0.05; that for A22G A52C A67U A96G U124C U130C was 1.45.
As to A22G A27G A78G, the self-cleavage was 0.35.
Take A22G C85U U130C: the self-cleavage came to 0.78.
The value for U19G U37C U57C was 1.02; that for A22G A55U A114G A117G was 0.56.
As to G21A U49G U87G A126C, the self-cleavage was determined as 0.08.
Regarding A22G A59G U132C, the self-cleavage was 0.92.
As to U19G A55G A59G U103C C105A A110G, the self-cleavage came out at 0.02.
Take A22G G44A U49C A62G A92G A94G U100C: the self-cleavage is 1.65.
On to A22G A52G A62G U70C, for which the self-cleavage was found to be 0.54.
For A22G U39C A96G A111U, the self-cleavage turned out to be 0.06.
With A22G A62G U124A, the self-cleavage was found to be 0.64.
Take U19C U39C U49C A63U A98G A116G U139C: the self-cleavage amounted to 0.36.
Regarding U19C G31A A89U, the self-cleavage was 0.59.
The value for A22G A30G U57A A116G was 0.23.
Regarding U19C U87G A116G, the self-cleavage amounted to 0.2.
The value for A22U A64G A95G was 0.97; that for G20A A82U G106A U132C was 0; that for A22G U43C A51G A118G was 1.21.
For the variant U19C U49C A82U U87C, the self-cleavage stood at 0.17.
Take U19G A62G A90G: the self-cleavage is 1.53.
As for A22G A56G G74U, the self-cleavage was found to be 0.21.
The value for A22G A23G U39C A56G A82U was 0.3.
